Data as given in paper PMC4336329 (PLoS ONE, 2015).
Among all 310,000 compounds or so, about 14,000 (4.5%) showed an effect of 50% or more. The effect is printed as a negative number. This is one part of the list.
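Further: peak tail current of the secondary pulse compared with the same well before compound.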

These molecules were tested against human ether-à-go-go-related gene (hERG) potassium channel (human, UniProt Q12809) (assay: primary screen, population patch clamp on CHO cells stably expressing hERG).
Sequence of human ether-à-go-go-related gene (hERG) potassium channel (Q12809 whole entry, looked up): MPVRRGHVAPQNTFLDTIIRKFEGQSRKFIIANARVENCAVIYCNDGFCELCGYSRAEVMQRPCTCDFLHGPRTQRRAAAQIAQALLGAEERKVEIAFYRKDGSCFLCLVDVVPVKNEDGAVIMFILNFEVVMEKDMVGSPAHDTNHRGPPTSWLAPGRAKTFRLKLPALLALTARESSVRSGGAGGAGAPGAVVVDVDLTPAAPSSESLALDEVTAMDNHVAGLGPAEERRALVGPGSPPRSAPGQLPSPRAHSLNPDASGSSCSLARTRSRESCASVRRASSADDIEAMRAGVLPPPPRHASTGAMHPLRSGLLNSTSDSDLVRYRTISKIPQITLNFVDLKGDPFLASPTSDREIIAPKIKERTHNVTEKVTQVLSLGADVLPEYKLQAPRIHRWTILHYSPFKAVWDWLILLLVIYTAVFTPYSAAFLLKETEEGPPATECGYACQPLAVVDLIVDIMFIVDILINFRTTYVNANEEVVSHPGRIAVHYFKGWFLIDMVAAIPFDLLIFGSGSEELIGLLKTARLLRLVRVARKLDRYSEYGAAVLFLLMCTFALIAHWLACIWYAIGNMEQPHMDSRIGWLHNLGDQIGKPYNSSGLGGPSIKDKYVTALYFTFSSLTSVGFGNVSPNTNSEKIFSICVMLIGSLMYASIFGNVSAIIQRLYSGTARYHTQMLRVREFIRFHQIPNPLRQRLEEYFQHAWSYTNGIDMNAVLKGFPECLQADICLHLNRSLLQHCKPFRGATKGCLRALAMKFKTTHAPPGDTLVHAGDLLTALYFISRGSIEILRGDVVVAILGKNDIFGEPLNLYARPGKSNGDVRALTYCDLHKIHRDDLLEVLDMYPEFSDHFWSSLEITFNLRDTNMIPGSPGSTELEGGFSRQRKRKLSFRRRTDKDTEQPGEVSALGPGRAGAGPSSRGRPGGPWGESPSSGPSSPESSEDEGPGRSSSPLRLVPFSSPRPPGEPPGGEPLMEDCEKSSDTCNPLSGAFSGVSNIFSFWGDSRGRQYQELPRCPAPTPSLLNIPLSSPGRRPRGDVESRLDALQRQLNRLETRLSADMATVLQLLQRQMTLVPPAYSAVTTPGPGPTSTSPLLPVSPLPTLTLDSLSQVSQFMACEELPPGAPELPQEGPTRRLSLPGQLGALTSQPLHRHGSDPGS
In the case of `CCCCN1CC(=O)N2[C@H]3c4cc(Cl)ccc4OC[C@@H]3[C@H](c3ccccc3)[C@]2(C)C1=O`, the “hERG current change (%, negative = inhibition) at 10uM” value is reported as 0.457%.
In the case of `C=CCn1c(SCc2nc3ccccc3c(=O)[nH]2)nc2scc(C3CC3)c2c1=O`, the “hERG current change (%, negative = inhibition) at 10uM” value is reported as 5.17%.
For `Cc1ccc(S(=O)(=O)Nc2cccc(C(=O)NCC3(N4CCCCC4)CCCCC3)c2)cc1F`, the “hERG current change (%, negative = inhibition) at 10uM” value was -82.6%.
In the case of `CC(C)c1nc2sc3c(NCc4ccccc4)ncnc3c2c2c1COC(C)(C)C2`, the “hERG current change (%, negative = inhibition) at 10uM” value is reported as 16.5%.
For `CCn1cc(S(=O)(=O)CC(=O)Nc2cc(C)ccc2C)c2ccccc21`, the “hERG current change (%, negative = inhibition) at 10uM” value was -2.2%.
In the case of `Cc1ccc(O)c(N=Nc2nccs2)c1`, the “hERG current change (%, negative = inhibition) at 10uM” value is reported as 14.2%.
With `NC(=NCCCCCCN=C(N)/N=C(\N)Nc1ccc(Cl)cc1)/N=C(\N)Nc1ccc(Cl)cc1` the “hERG current change (%, negative = inhibition) at 10uM” value was -5.23%.
In the case of `CC(=O)Nc1ccc(NC(=O)Nc2cc(C)cc(C)c2)cc1`, the “hERG current change (%, negative = inhibition) at 10uM” value is reported as 13.7%.
In the case of `COc1ccccc1-n1ccnc1SCC(=O)NC(C)(C)C`, the “hERG current change (%, negative = inhibition) at 10uM” value is reported as 13.3%.
For `CSc1cccc2sc(NC(=O)C3=COCCO3)nc12`, the “hERG current change (%, negative = inhibition) at 10uM” value was 5.96%.
With `CCN1CCN(C(=O)c2oc(=O)c3ccccc3c2-c2ccc(C)cc2)CC1` the “hERG current change (%, negative = inhibition) at 10uM” value was -22.2%.
`CCc1ccc(N(C(=O)c2csnn2)C(C(=O)NC(C)(C)CC)c2cccnc2)cc1` (stereo not shown) was tested, and the “hERG current change (%, negative = inhibition) at 10uM” value was 0.573%.
With `Cc1c(CCC(=O)NCC(=O)O)c(=O)oc2cc3occ(-c4ccccc4)c3cc12` the “hERG current change (%, negative = inhibition) at 10uM” value was 7.75%.
In the case of `O=C(NC1CC1)c1ccc(CS(=O)(=O)c2c(Cl)cccc2Cl)o1`, the “hERG current change (%, negative = inhibition) at 10uM” value is reported as -5.87%.
For `CCC(C)NC(=O)c1ccc2nc(-c3ccc(OC)c(OC)c3)c(-c3ccc(OC)c(OC)c3)nc2c1` (stereo not shown), the “hERG current change (%, negative = inhibition) at 10uM” value was 3%.
`CSCC[C@H](NC(=O)c1cc2c([nH]c3ccccc32)c(-c2ccccc2)n1)C(=O)O` was tested, and the “hERG current change (%, negative = inhibition) at 10uM” value was 27%.
`CSc1nccc(Nc2ccccc2)c1C#N` was tested, and the “hERG current change (%, negative = inhibition) at 10uM” value was 3.86%.
`COc1ccc(CNc2ncnc3c2[nH]c2ccccc23)cc1` was tested, and the “hERG current change (%, negative = inhibition) at 10uM” value was 1.67%.
In the case of `COC(=O)C1=C(c2ccccc2)C[C@@H]2CC[C@H]1N2C(=O)NC1CC1`, the “hERG current change (%, negative = inhibition) at 10uM” value is reported as -4.75%.
`Cc1ccc(C(=O)NNC(=O)c2ccncc2)cc1S(=O)(=O)N1CCCCC1` was tested, and the “hERG current change (%, negative = inhibition) at 10uM” value was -14%.
`Cc1cccc(C)c1NC(=O)CNC(=O)c1ccc(N2CCCC2=O)cc1` was tested, and the “hERG current change (%, negative = inhibition) at 10uM” value was 6.49%.
`CCn1ncc(/C=N/NC(=O)c2cc(Cl)ccc2OC)c1C` was tested, and the “hERG current change (%, negative = inhibition) at 10uM” value was 4.65%.
`C=CCn1c(-c2ccc3[nH]c(C)c(C)c3c2)n[nH]c1=S` was tested, and the “hERG current change (%, negative = inhibition) at 10uM” value was 16.7%.
In the case of `NS(=O)(=O)c1ccc(CNC(=O)c2cc(=O)c3ccccc3o2)cc1`, the “hERG current change (%, negative = inhibition) at 10uM” value is reported as 10.8%.
`CCOC(=O)C(NS(=O)(=O)c1ccccc1)(C(F)(F)F)P(=O)(OC(C)C)OC(C)C` (stereo not shown) was tested, and the “hERG current change (%, negative = inhibition) at 10uM” value was 19%.
With `Cn1c(O)c(N=Nc2nc(-c3ccccc3)cs2)c2ccccc21` the “hERG current change (%, negative = inhibition) at 10uM” value was -6.78%.
`CN(C)S(=O)(=O)c1cccc(NC(=O)c2cncc(Br)c2)c1` was tested, and the “hERG current change (%, negative = inhibition) at 10uM” value was -3.39%.
In the case of `Cc1ccc(C(=O)N2CCN(Cc3ccc4c(c3)OCO4)CC2)cc1S(=O)(=O)N1CCOCC1`, the “hERG current change (%, negative = inhibition) at 10uM” value is reported as -22%.
In the case of `Cc1nn(CC(=O)c2ccccc2)c(=O)c2nn(-c3ccccc3F)c(C)c12`, the “hERG current change (%, negative = inhibition) at 10uM” value is reported as -9.51%.
For `Cc1cc(NC(=O)c2ccccc2)n(-c2nc3ccccc3[nH]2)n1`, the “hERG current change (%, negative = inhibition) at 10uM” value was 27.5%.
In the case of `N#C/C(=C\c1cccnc1)C(=O)Nc1ccc(SC(F)F)cc1`, the “hERG current change (%, negative = inhibition) at 10uM” value is reported as -39.4%.
`COc1cccc(/C=C2\SC(=O)N(CCC(=O)NC3CCS(=O)(=O)C3)C2=O)c1` (stereo not shown) was tested, and the “hERG current change (%, negative = inhibition) at 10uM” value was 10.2%.
In the case of `Cc1cc(N2CCN(c3nnnn3-c3ccccc3)CC2)n2ncnc2n1`, the “hERG current change (%, negative = inhibition) at 10uM” value is reported as -60.2%.
With `CC(C)(C)Cc1nnc(NS(=O)(=O)Cc2ccccc2)s1` the “hERG current change (%, negative = inhibition) at 10uM” value was -7.06%.
`CCCCOn1c(C)c(C(C)=O)c2c3no[n+]([O-])c3ccc21` was tested, and the “hERG current change (%, negative = inhibition) at 10uM” value was -38.9%.
With `CC1=CC2=NC(=O)/C(=C\c3cccn3CCOc3ccccc3)C(=N)N2O1` the “hERG current change (%, negative = inhibition) at 10uM” value was -3.86%.
In the case of `CC(=O)Nc1ccc(C(=O)N/N=C(\C)CC(=O)Nc2ccc(OCc3ccccc3)cc2)cc1`, the “hERG current change (%, negative = inhibition) at 10uM” value is reported as 9.5%.
`CCOc1ccc(/C=C/C(=O)Oc2ccc(OC)cc2)cc1` was tested, and the “hERG current change (%, negative = inhibition) at 10uM” value was 13.4%.
In the case of `Cc1cccc(C(=O)NC2CCN(C(=O)NCc3ccccc3)CC2)c1`, the “hERG current change (%, negative = inhibition) at 10uM” value is reported as -12.1%.
For `Cc1ccccc1OCC(=O)NNC(=O)c1ccc2c(=O)n3c(nc2c1)CCC3`, the “hERG current change (%, negative = inhibition) at 10uM” value was -14.3%.
For `N#Cc1ccc(OCC(=O)Nc2nc(-c3cccnc3)cs2)cc1`, the “hERG current change (%, negative = inhibition) at 10uM” value was 2.27%.
With `C=CCC1(C#N)C(SC)=NC2=C(C(=O)CC(C)(C)C2)C1c1ccc(Br)cc1` (stereo not shown) the “hERG current change (%, negative = inhibition) at 10uM” value was 7.72%.
For `CCOC(=O)C1CCCN(Cc2cc(=O)oc3cc(C)c(C)cc23)C1` (stereo not shown), the “hERG current change (%, negative = inhibition) at 10uM” value was -19.3%.
`COC(=O)c1ccc(Oc2ccc(C(F)(F)F)cn2)cc1` was tested, and the “hERG current change (%, negative = inhibition) at 10uM” value was 11.9%.
With `Cc1ccc(-c2nc(CNC(=O)c3cc(C)on3)cs2)cc1` the “hERG current change (%, negative = inhibition) at 10uM” value was 8.32%.
`CNC(=O)COC(=O)c1ccccc1Nc1ccccc1` was tested, and the “hERG current change (%, negative = inhibition) at 10uM” value was 0.541%.
With `COc1ccc(OC)c(NC(=O)CCNS(=O)(=O)c2ccc3[nH]c(=O)oc3c2)c1` the “hERG current change (%, negative = inhibition) at 10uM” value was -0.0171%.
In the case of `Cn1c(SCC(=O)NCCc2ccccc2)nnc1-c1ccco1`, the “hERG current change (%, negative = inhibition) at 10uM” value is reported as -4.63%.
`COc1ccc(NC(=O)CSc2nnc(Cc3cccs3)n2-c2ccc(C)cc2)cc1` was tested, and the “hERG current change (%, negative = inhibition) at 10uM” value was -20.6%.
`Cc1noc(C)c1CSc1nc2ccccc2s1` was tested, and the “hERG current change (%, negative = inhibition) at 10uM” value was -10.1%.
In the case of `O=C(Nc1ccc(N2CCN(C(=O)c3cccs3)CC2)cc1)c1ccc([N+](=O)[O-])o1`, the “hERG current change (%, negative = inhibition) at 10uM” value is reported as -25.5%.
In the case of `O=C(O)CCCn1cc(NC(=O)COc2ccccc2)cn1`, the “hERG current change (%, negative = inhibition) at 10uM” value is reported as 6.47%.
With `CCCCNC(=O)/C=C/c1cccs1` the “hERG current change (%, negative = inhibition) at 10uM” value was 34.7%.
`CCOc1ccc(CCNC(=O)C2CCCN(S(C)(=O)=O)C2)cc1OCC` (stereo not shown) was tested, and the “hERG current change (%, negative = inhibition) at 10uM” value was 7.79%.
For `Cc1nc2ccccc2c(=O)n1NC(=O)C1CCC(C(C)(C)C)CC1` (stereo not shown), the “hERG current change (%, negative = inhibition) at 10uM” value was 1.82%.
